Results reported in PubChem BioAssay AID624296 (National Center for Advancing Translational Sciences (NCATS), 2012).
Out of some 350,000 compounds screened, about 9,900 (2.8%) were called active. Inconclusive results, whose numbers are uncertain, are shown with a selection of clear calls. Calls come from the whole dose curve; as a rule, active = well fitted activation curve with a large enough effect; inconclusive = small, poorly fitted or top-dose-only effect; inactive = no such curve, though single readings can be large or run the other way. No potency is given beside an inconclusive call; the fits are too rough.

Test: A quantitative high throughput screen for small molecules that induce DNA re-replication in MCF 10a normal breast cells. Note: nearly all actives have a fitted effect of over 50% in size.
Conditions: MCF 10A DNA re-replication, Hoechst nuclear intensity, 48 h; series mostly up to 46.1 µM
Potency is the fitted concentration of half-maximal effect; tags give direction and shape of the fitted curve.

**Q.** With `O=C(NC1CCCCC1)c1ccc([N+](=O)[O-])o1` as the compound, how does the Potency read?
**A.** active: 16.4 µM

**Q.** For `Cc1cccc(N2CCN(CC(=O)NCc3ccc(Cl)cc3)CC2)c1C`, which Potency is on record?
**A.** inconclusive [activator, single point]

**Q.** For `CS(=O)(=O)N(CC(=O)N/N=C/c1ccco1)c1ccccc1Br`, which Potency is on record?
**A.** inactive

**Q.** With `O=C(CCC1CCCC1)Nc1cccc(Cc2ccncc2)c1` as the compound, how does the Potency read?
**A.** inconclusive [activator, single point]

**Q.** With `COc1ccc(NC(=O)N(C)C[C@H]2Oc3ccc(NC(=O)NC4CCCCC4)cc3C(=O)N([C@H](C)CO)C[C@@H]2C)cc1` as the compound, how does the Potency read?
**A.** inconclusive [activator, full curve, poor fit]

**Q.** For `c1ccc(COc2ccc(CNCc3cccs3)cc2)cc1`, which Potency is on record?
**A.** inconclusive [activator, partial curve, poor fit]

**Q.** Which Potency does the source give for `CC1(c2nnc(Cc3ccccc3)o2)CC(c2cccc([N+](=O)[O-])c2)=NO1` (configuration not stated) here?
**A.** inactive

**Q.** With `c1ccc(Cn2nnnc2CN2CCN(Cc3ccc4c(c3)OCO4)CC2)cc1` as the compound, how does the Potency read?
**A.** inconclusive [activator, partial curve, poor fit]

**Q.** With `COc1ccc(N2CCN(C(=O)c3ccc(COc4ccc([N+](=O)[O-])cc4)o3)CC2)cc1` as the compound, how does the Potency read?
**A.** inconclusive [activator, single point]

**Q.** For `Cc1ccccc1C(=O)Nc1ccc(C(=O)N/N=C/c2ccc(F)cc2)cc1`, which Potency is on record?
**A.** inconclusive [activator, single point]

**Q.** Which Potency does the source give for `Cc1sc2nc(C3CC3)nc(N3CCN(S(=O)(=O)c4ccc(F)cc4)CC3)c2c1C` here?
**A.** inconclusive [activator, partial curve, poor fit]

**Q.** For `c1ccc2c(-c3ccc(OCCN4CCCCC4)cc3)c(-c3ccsc3)sc2c1`, which Potency is on record?
**A.** inconclusive [activator, partial curve, poor fit]

**Q.** With `Cc1csc(NC(=O)Cc2ccc(F)cc2)n1` as the compound, how does the Potency read?
**A.** inconclusive [activator, single point]

**Q.** With `Cc1ccc(SCC(=O)OCC(=O)NC(C)c2ccc(Br)cc2)cc1` (configuration not stated) as the compound, how does the Potency read?
**A.** inactive

**Q.** Which Potency does the source give for `COc1cccc(Nc2nnc(SCc3nc4ccccc4s3)s2)c1` here?
**A.** inconclusive [activator, partial curve, poor fit]

**Q.** Which Potency does the source give for `CC(=O)Nc1cccc(-c2csc(Nc3ccc(Cl)cn3)n2)c1` here?
**A.** inactive

**Q.** With `O=C(Cc1ccc(Cl)cc1)NNc1c(F)c(F)cc(F)c1F` as the compound, how does the Potency read?
**A.** inactive

**Q.** With `CC1(C)Cc2c(sc(NC(=O)COc3ccccc3)c2C#N)C(C)(C)N1` as the compound, how does the Potency read?
**A.** inconclusive [activator, partial curve, poor fit]

**Q.** For `CN(Cc1ccccc1)C(=O)c1nc[nH]c1C(=O)N1CCc2ccccc2C1`, which Potency is on record?
**A.** inconclusive [activator, single point]

**Q.** With `COc1ccc(C(=O)CC(=O)c2ccc(OC)cc2)cc1` as the compound, how does the Potency read?
**A.** inactive

**Q.** With `OC[C@H]1O[C@@H](O[C@@H]2[C@@H](CO)O[C@@](O)(CO)[C@H]2O)[C@H](O)[C@@H](O)[C@H]1O` as the compound, how does the Potency read?
**A.** inactive

**Q.** For `Cc1ccc(C(=O)N(Cc2ccccc2)C(C)(C)C)cc1C`, which Potency is on record?
**A.** active: 23.1 µM

**Q.** With `COc1ccc(C2=NN(C(=O)CCC(=O)O)C(c3ccc(OC)cc3)C2)cc1` (configuration not stated) as the compound, how does the Potency read?
**A.** inconclusive [activator, single point]

**Q.** For `c1cncc(-c2nc(-c3ccc4c(c3)OCCO4)cs2)c1`, which Potency is on record?
**A.** inconclusive [activator, single point]

**Q.** For `COCCCn1c(C(=O)NC2CCCCC2C)cc2c(=O)n3cccc(C)c3nc21` (configuration not stated), which Potency is on record?
**A.** inconclusive [activator, single point]

**Q.** For `O=C(Cc1cccs1)N1CCN=C1SCc1ccc(Br)cc1`, which Potency is on record?
**A.** inconclusive [activator, single point]

**Q.** With `Cc1cc(C)nc(SCC(=O)NNC(=O)c2cccs2)n1` as the compound, how does the Potency read?
**A.** inconclusive [activator, partial curve, poor fit]

**Q.** Which Potency does the source give for `Cc1cc(C)c2cc(CN(CCO)C(=O)Nc3ccc(Cl)cc3)c(=O)[nH]c2c1` here?
**A.** inconclusive [activator, single point]

**Q.** Which Potency does the source give for `COc1ccc(CNC(=O)Cn2cnc3c(OCc4ccccc4)ncnc32)cc1` here?
**A.** inactive

**Q.** Which Potency does the source give for `COc1ccc2nc3c(cc2c1)c(NC(=O)CC(C)C)nn3CC(C)C` here?
**A.** active: 7.31 µM

**Q.** For `CSc1ncccc1C(=O)Nc1cccc(S(=O)(=O)N2CCCC2)c1`, which Potency is on record?
**A.** inactive

**Q.** With `Cc1[nH]n(-c2cccc(Cl)c2)c(=O)c1-c1ccc(Cl)cc1` as the compound, how does the Potency read?
**A.** inconclusive [activator, partial curve, poor fit]

**Q.** Which Potency does the source give for `COc1cccc(CNc2ncc(-c3ccccc3)n2C)c1` here?
**A.** inconclusive [activator, single point]

**Q.** For `Cc1onc(-c2c(F)cccc2Cl)c1C(=O)OCc1cnc(Cl)s1`, which Potency is on record?
**A.** inconclusive [activator, single point]

**Q.** Which Potency does the source give for `COC(=O)Oc1ccc(/C=C/C(=O)OC(C)C)cc1OC(=O)OC` here?
**A.** inconclusive [activator, partial curve, poor fit]

**Q.** With `CCCN(CCC)c1nc2c(C)cccn2c(=O)c1/C=C1/SC(=S)N(Cc2ccco2)C1=O` as the compound, how does the Potency read?
**A.** inconclusive [activator, partial curve, poor fit]

**Q.** For `Cc1ccc(C(C(=O)NC2CCCCC2)N(Cc2ccco2)C(=O)Cc2c[nH]c3ccccc23)o1` (configuration not stated), which Potency is on record?
**A.** inconclusive [activator, partial curve, poor fit]

**Q.** Which Potency does the source give for `O=C1C=C(Nc2cccc3cccnc23)c2ccccc2C1=O` here?
**A.** active: 3.66 µM

**Q.** With `Cc1nccn1CCC1CCCCN1C(=O)CCc1nnc(-c2ccsc2)o1` (configuration not stated) as the compound, how does the Potency read?
**A.** inconclusive [activator, partial curve]

**Q.** With `CC(=O)Oc1ccc(C(=O)[C@H]2[C@H]3C(=O)N(c4ccc5ccccc5c4)C(=O)[C@H]3[C@@H]3C=CC=NN32)cc1` as the compound, how does the Potency read?
**A.** inconclusive [activator, partial curve, poor fit]

**Q.** For `CC(C(=O)NCC1CCCCC1)N(C)CC(=O)Nc1ccc(N2CCOCC2)cc1` (configuration not stated), which Potency is on record?
**A.** inactive

**Q.** With `COc1ccc(C2(C)NC(=O)N(CC(=O)NCCC3=CCCCC3)C2=O)cc1OC` (configuration not stated) as the compound, how does the Potency read?
**A.** inactive
